# Hit rate of the full screen: of about 110,000 compounds, about 230 (0.21%) showed an effect of 50% or more. Some of the results follow.
# Target: DPAP1 (Plasmodium falciparum, UniProt Q8IIJ9)
# Test: primary screen, percent inhibition; read by cleavage of a fluorogenic dipeptide substrate; higher = more effect of the substance
# Parameters: species or system P. falciparum D10 trophozoite lysates; single well
# 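Further: 30 min substrate incubation versus DMSO and 10 µM JCP410 controls.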
# Chain of DPAP1 (Q8IIJ9 whole entry, looked up): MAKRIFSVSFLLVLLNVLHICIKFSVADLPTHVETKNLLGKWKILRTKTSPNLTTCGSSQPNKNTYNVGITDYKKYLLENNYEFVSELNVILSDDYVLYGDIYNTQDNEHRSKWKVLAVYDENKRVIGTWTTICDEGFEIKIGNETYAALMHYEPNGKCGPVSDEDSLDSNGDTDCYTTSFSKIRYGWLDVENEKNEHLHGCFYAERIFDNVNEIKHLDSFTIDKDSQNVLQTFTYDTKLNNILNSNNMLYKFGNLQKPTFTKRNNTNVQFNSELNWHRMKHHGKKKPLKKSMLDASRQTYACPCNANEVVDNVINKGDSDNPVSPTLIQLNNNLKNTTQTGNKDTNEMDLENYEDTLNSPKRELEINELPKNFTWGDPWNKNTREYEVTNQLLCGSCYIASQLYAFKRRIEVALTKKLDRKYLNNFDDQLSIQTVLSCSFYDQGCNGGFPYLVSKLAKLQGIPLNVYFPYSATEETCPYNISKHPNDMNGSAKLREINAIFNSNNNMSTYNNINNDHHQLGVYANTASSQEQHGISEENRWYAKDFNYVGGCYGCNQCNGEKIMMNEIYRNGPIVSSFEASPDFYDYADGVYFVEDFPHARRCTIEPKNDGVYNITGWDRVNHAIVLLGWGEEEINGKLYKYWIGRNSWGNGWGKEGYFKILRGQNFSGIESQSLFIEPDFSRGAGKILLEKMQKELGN
row,SMILES,% Inhibition @ 10 uM
1,Cc1nc2c(c(C)c1CCC(=O)NCC1CCN(Cc3ccccc3F)CC1)c(=O)n(C)c(=O)n2C,-1.3%
2,O=C1C(C(c2ccc(Cl)cc2)N2CCCC2)C(c2ccc(Cl)cc2)=NN1c1ccc(Cl)cc1 (centres unmarked),-6.52%
3,CC(C)CCNC(=O)Cn1ccc2cc(S(=O)(=O)N3CCCC3)ccc21,0.536%
4,C=C(C)C(C)(O)C#CCN1CCCCC1 (centres unmarked),2.54%
5,O=C(Nc1ccc(Cl)cc1)Nc1cccc(Cl)c1,-4.94%
6,C/C=C/C=C/C(=O)Nc1ccc(-c2nc3ccccc3o2)cc1,0.219%
7,CCOC(=O)c1ccc(-c2nnc(-c3ccccc3OC)o2)cc1,2.7%
8,COc1ccc(N(CC(=O)NC(C)(C)C)S(=O)(=O)c2ccc(C)cc2)cc1Cl,-0.185%
9,Fc1ccccc1-c1nnc(-c2ccc(C(F)(F)F)cc2)o1,-5.32%
10,CC(C)(C)NC(=O)CCNS(=O)(=O)c1ccc(Br)s1,-0.601%
11,Cc1c(O)ccc(-c2[nH]ncc2Oc2ccccc2)c1O,4.07%
12,CC(C)C[C@H](NC(=O)OC(c1ccccc1)c1ccccc1C(F)(F)F)C(=O)NCC#N (some centres unmarked),0.174%
13,CCOC(=O)c1c(-c2ccc(OC)cc2)oc2ccc(OCC)cc12,-3.41%
14,CCOc1cccc(-c2cc(C(=O)O)c3cccc(C)c3n2)c1,2.69%
15,Cc1ccc(CNC(=O)Cc2c(C)nc3c(-c4ccccc4)c(C)nn3c2C)cc1,5.47%
16,Cc1nn(C)c(C)c1CN(C)C(=O)c1cc2nc3c(c(C(F)(F)F)n2n1)CCc1ccccc1-3,0.64%
17,Cc1nc2c3ccccc3n3c(CCCC(=O)NCc4ccccn4)nnc3n2n1,-1.21%
18,O=C(c1cccc(Cl)c1)N1CCc2ccccc2C1,8.74%
19,CC(C)c1ccc(NC(=O)CN(C)S(=O)(=O)c2ccc(Br)cc2)cc1,-3.26%
20,CCN1CCN(C(=O)C2CC(c3ccccc3OC)=NO2)CC1 (centres unmarked),6.04%
21,Cc1nn(CCCC(=O)N2CCN(C3CCCCC3)CC2)c(=O)c2c1sc1ccccc12,2.21%
22,O=C(C1CCN(c2nnc(-n3cccc3)s2)CC1)N1CCc2ccccc2C1,-4.04%
23,Cc1cc(N)ccc1-n1nc2ccccc2n1,-2.97%
24,O=C(O)C(Cc1ccccc1)NS(=O)(=O)c1cccc2cccnc12 (centres unmarked),-0.458%
25,CC1(C)CC(=O)C(/C=N/c2ccc3ccccc3c2)=C(O)C1,-1.07%
26,Cc1ccc(-c2cc(C(=O)NCc3ccco3)c3ccccc3n2)s1,5.84%

row,SMILES,% Inhibition @ 10 uM
1,Cc1ccc(C2C(=O)N(C3CCCCCC3)CC(=O)N2Cc2ccccc2)cc1 (centres unmarked),-5.92%
2,Cc1ccc(C(=O)N2CCN(c3cccc(C(F)(F)F)c3)CC2)o1,-3.45%
3,COc1ccc(OC)c(C2NC(=O)NC(C)=C2C(=O)Nc2ccc(Cl)cc2)c1 (centres unmarked),-3.04%
4,N#CCNC(=O)[C@H](Cc1c(F)cc(Cl)cc1F)NC(=O)OCc1ccccc1,-4.82%
5,Cc1ccc(SCCC(=O)N2CCN(C)CC2)cc1,3.37%
6,COc1cccc(C2=NOC(C(=O)Nc3cccnc3)C2)c1 (centres unmarked),6.22%
7,COc1ccc(NC(=O)C2(c3ccccc3)CCOCC2)cc1,4.22%
8,Cc1ccc(Cc2c(C)nc3c(C(=O)NCCCN4CCOCC4)cnn3c2C)cc1,-11.8%
9,CN1CCN(CC(=O)Nc2ccc(Cl)cc2C(=O)c2ccccc2)CC1,-10.1%
10,O=C(COc1ccccc1)Nc1ccc(S(=O)(=O)N2CCc3ccccc32)cc1,6.24%
11,N#Cc1cccc(NC(=O)CCc2ccccc2)c1,2.17%
12,COc1ccc(-c2cc(C(F)(F)F)n3ncc(C(=O)NC4CCCCC4)c3n2)cc1OC,-1.87%
13,COc1ccc(/C=C/C(=O)c2ccncc2)c2ccccc12,-3.77%
14,Cc1csc(NC(=O)c2c(O)c3ccccc3n(CC(C)C)c2=O)n1,6.1%
15,Cc1cccc(C(=O)Nc2nc(-c3nnn(-c4ccc(F)c(Cl)c4)c3C)ns2)c1,1.97%
16,Cc1cc(O)nc2c1c(C)nn2CCc1ccccn1,-2.77%
17,COc1ccc(-n2nnnc2C2CCN(S(=O)(=O)c3ccccc3C#N)CC2)cc1,-9.21%
18,O=C(Nc1cccc2ccccc12)c1c(F)cccc1F,-2.28%
19,Cc1ccc(CNCc2c(C(=O)O)n(Cc3ccc(F)cc3Cl)c3cc(C)ccc23)cc1,-8.66%
20,Cc1cc(C)c(C)c(OCC(=O)NC23CC4CC(CC(C4)C2)C3)c1,-3.29%
21,Cc1nc(SCC(=O)N2CCC(C)CC2)c2c3c(sc2n1)CCCC3,-2.28%
22,Cc1cc(C)c(NC(=O)c2ccc(C)o2)c(C)c1,-0.132%
23,COc1ccc(CN2CC(C)CC(C)C2)c2ccccc12 (centres unmarked),-1.5%
24,CC(C)(C)NC(=O)CSc1nnc(-c2ccc(Cl)cc2Cl)o1,2.79%
25,CCOC(=O)/C(C#N)=C/c1ccc(O)cc1O,5.29%
26,Cc1cc(C)c2c(-n3cccc3)c(C(=O)NCCCN3CCC(N4CCCCC4)CC3)sc2n1,0.623%

row,SMILES,% Inhibition @ 10 uM
1,O=C(NCC1CCCO1)c1cnn2c(C(F)(F)F)cc(-c3cccs3)nc12 (centres unmarked),-4.06%
2,CCOC(=O)c1ccccc1NC(=O)c1ccccc1Cl,2.57%
3,CCN(CC)C(=O)c1ccc(CS(=O)c2ccccc2C)o1 (centres unmarked),-4.96%
4,COc1cc(NC2CCCCCC2)cc(OC)c1,-5.44%
5,Cc1ccc2nc(C)c(CN3CCOCC3)c(O)c2c1,1.37%
6,CC1=C(C(=O)OC2CCCCCCC2)C(c2ccccc2Cl)CC(=O)N1 (centres unmarked),1.97%
7,CCN(CC)C(=O)c1ccc(C(O)C(Cl)(Cl)Cl)o1 (centres unmarked),5.64%
8,CC(C)OCCCNc1ncnc2c1cnn2C,4.92%
9,Cc1cccc(N2CCN(C(=O)c3ccccc3C(=O)O)CC2)c1,1.92%
10,COc1ccc(C(=O)c2sc3nc(C)ccc3c2N)cc1OC,5.66%
11,C1=C(c2ccccc2)CC(c2ccccc2)=NN=C1c1ccccc1,-1.54%
12,COc1ccc(C2C(C#N)=C(N)OC3=C2C(=O)CCC3)c(OC)c1OC (centres unmarked),-4.75%
13,Cc1cc2nc(O)c(O)nc2cc1S(N)(=O)=O,0.454%
14,COc1cc(C(CC(=O)Nc2ccc(Cl)cn2)N2Cc3ccccc3C2=O)cc(OC)c1OC (centres unmarked),-10.1%
15,COc1ccc(C2C(C#N)=C(N)Oc3c2c(C)nn3-c2ccc(C)cc2)c(OC)c1 (centres unmarked),-5.48%
16,COc1ccc(OCCNC(=O)C(c2ccccc2)c2ccccc2)cc1,-2.19%
17,COc1ccc(-c2ccc(=O)n(Cc3c(F)cccc3Cl)n2)cc1,0.718%
18,Cc1ccc(S(=O)(=O)n2nc(-c3ccccc3)nc2NCc2ccc(F)cc2)cc1,6.84%
19,CCN(CC)C(=S)NC(=O)/C=C/c1cccs1,1.44%
20,Cc1ccccc1C1C=C(c2cccnc2)Nc2nc3ccccc3n21 (centres unmarked),0.219%
21,Cc1ccc(NC(=O)Cc2ccccc2)c(C)c1,3.47%
22,Oc1ccccc1-c1nnco1,-3.21%
23,O=C(O)C1C2C=CC(C2)C1C(=O)N1CCN(c2ccccc2)CC1 (centres unmarked),-3.18%
24,CCn1c(SCC(=O)c2ccccc2)nc2ccccc2c1=O,2.86%
25,CC(C)COc1ccc(C(=O)N/C(=C/c2ccc3c(c2)OCO3)C(=O)O)cc1,3.86%
26,Cc1c(Cl)cccc1N(CC(=O)N1CCC(C)CC1)S(C)(=O)=O,1.67%

row,SMILES,% Inhibition @ 10 uM
1,Cc1cc(C)c2c(CC(=O)NCc3ccc4c(c3)OCO4)coc2c1,1%
2,COc1ccc(C(=O)Nc2nc(-c3nnn(-c4cc(C)cc(C)c4)c3C)ns2)cc1,1.8%
3,CC(C)C[C@H](NC(=O)c1ccc(N2CCN(C)CC2)cc1)C(=O)N[C@@H](CCCN=C(N)N)C(N)=O,-3.04%
4,Cc1nn(-c2ccccc2)c2c(=O)c(I)cccc12,-2.2%
5,Cc1cccc(C(=O)N(Cc2ccccc2)C(C)C)c1,1.83%
6,Cc1ccc2nc(-c3ccc4c(c3)OCO4)cc(C(=O)O)c2c1,-5.06%
7,CCn1cc(C(=O)O)c(=O)c2cc(F)c(N3CCC4CCCN4C3)cc21 (centres unmarked),-1.85%
8,Cn1c(=N)n(CCOc2ccccc2Cl)c2ccccc21,-0.251%
9,CCOc1ccc(CCNC(=O)c2cc(C3CC3)[nH]n2)cc1OCC,0.359%
10,CN1C(=O)/C(=C/c2c[nH]c3ccccc23)S/C1=N/c1ccc(C(=O)O)cc1,0.606%
11,CC1=CC(=C2C(=O)NC(=O)NC2=O)C=C(C(F)(F)F)N1Cc1ccccc1,20.6%
12,COc1ccc(S(=O)(=O)NC2CCCCC2)cc1OC,-3.74%
13,COc1ccc(/N=C(\C)c2c(C)nn(-c3ccccc3)c2O)c(OC)c1,-2.68%
14,N#CC1=C(N)Oc2[nH]nc(-c3cccc4ccccc34)c2C1c1ccccc1F (centres unmarked),4.09%
15,COc1cc(/C=C2\SC(c3ccccc3)=NC2=O)cc(Cl)c1O,4.3%
16,Cc1nc2ncnn2c(C)c1Cl,2.62%
17,Cc1cccc(NC(=O)CN2C(=O)N/C(=C/c3ccc(OCC(C)C)cc3)C2=O)c1,6.65%
18,CCOc1ccc(-n2nc3ccc(NC(=O)c4cc(OC)cc(OC)c4)cc3n2)cc1,0.214%
19,O[S+]1c2ccccc2Nc2cc(C(F)(F)F)ccc21 (centres unmarked),2.51%
20,CSc1ncc2c(O)c3c(nc2n1)N(C)CCC3,3.8%
21,COc1ccc(OC)c(N(CC(=O)NCc2ccco2)S(C)(=O)=O)c1,-3.75%
22,COCCCNC(=O)c1ccc(CSc2nc3ccncc3n2Cc2ccc(C)cc2)cc1,-0.637%
23,COCCNC(=O)Cn1cnc2sc(C)c(S(=O)(=O)N3CCC(C)CC3)c2c1=O,2.06%
